Out of some 270,000 compounds screened, about 620 (0.23%) were called active. The shares of active, inactive and inconclusive entries below differ from those in the screen. Calls come from the whole dose curve; as a rule, active = well fitted inhibition curve with a large enough effect in the polarisation, with a control signal flat (not every such curve was filed as active); inconclusive = small, poorly fitted or top-dose-only effect, or effect the other way, or a change in a side signal; inactive = no such curve, though single readings can be large or run the other way; the % refers to the polarisation. Where the call is inconclusive, the potency comes from a doubtful curve fit. A note “side channel” means that the fit belongs to a control or component signal, not to the main read-out.
What follows are compounds tested against Menin (Homo sapiens) (UniProt O00255) (assay: qHTS Assay for Inhibitors Targeting the Menin-MLL Interaction in MLL Related Leukemias: Competition With Texas Red Labeled MLL-derived Mutant Peptide). Conditions: fluorescence polarization; FP activity change, negative = inhibition: at 61.6 µM (top of the series).
UniProt O00255, sequence (O00255 whole entry, looked up): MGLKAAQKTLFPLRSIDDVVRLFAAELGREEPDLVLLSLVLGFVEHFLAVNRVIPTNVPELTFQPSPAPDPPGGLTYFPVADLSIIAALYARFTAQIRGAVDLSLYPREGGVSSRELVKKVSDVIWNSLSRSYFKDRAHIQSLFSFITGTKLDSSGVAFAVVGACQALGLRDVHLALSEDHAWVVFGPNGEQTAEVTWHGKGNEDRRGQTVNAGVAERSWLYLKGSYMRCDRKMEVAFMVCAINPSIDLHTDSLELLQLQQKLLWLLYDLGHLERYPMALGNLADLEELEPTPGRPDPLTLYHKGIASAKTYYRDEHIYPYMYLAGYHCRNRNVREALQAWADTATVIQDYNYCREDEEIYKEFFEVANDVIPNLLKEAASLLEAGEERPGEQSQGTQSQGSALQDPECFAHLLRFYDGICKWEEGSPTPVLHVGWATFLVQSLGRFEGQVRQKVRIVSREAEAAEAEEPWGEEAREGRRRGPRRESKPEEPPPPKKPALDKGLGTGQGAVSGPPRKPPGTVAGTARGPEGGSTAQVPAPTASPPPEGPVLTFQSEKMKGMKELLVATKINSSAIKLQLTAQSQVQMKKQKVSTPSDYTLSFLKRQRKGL
For `Cc1cccc(C)c1OCc1nc2ccccc2c(=O)n1/N=C/c1ccc(OCC(=O)O)cc1`, the Potency was inconclusive: 31.6 µM [quencher, side channel, single point]. `CC(C)c1ccccc1OCC(=O)N1CCCCCCC1` was tested, and the Potency was inconclusive: 1.26 µM [inhibitor, full curve, poor fit]. `Cc1ccc(S(=O)(=O)N2CCC(NC(=O)c3ccccc3)CC2)cc1` was tested, and the Potency was inconclusive: 20 µM [fluorescent, side channel, single point]. For `COc1ccc(NC(=O)CC2SC(=Nc3ccccc3)NC2=O)cc1` (stereo not given), the Potency was inconclusive: 39.8 µM [fluorescent, single point]. For `COc1ccc(SCCN2CCN(CCc3ccccc3)CCC2=O)cc1`, the Potency was inconclusive: 12.6 µM [inhibitor, single point]. For `COc1cc(NC(=O)c2cc(Cl)ccc2Cl)ccc1-c1cc2ccccc2oc1=O`, the Potency was inconclusive: 39.8 µM [inhibitor, single point]. For `CC(C(=O)Nc1ccc([N+](=O)[O-])cc1)N1CCN(C/C=C/c2ccccc2)CC1` (stereo not given), the “FP activity change, negative = inhibition” value was inactive: -3.16%. For `O=C(Nc1nnc(COc2ccc(F)cc2)s1)c1cccs1`, the Potency was inconclusive: 22.4 µM [inhibitor, single point]. With `CC(=O)Nc1ccc(NC(=O)CN(c2ccc([N+](=O)[O-])cc2)S(=O)(=O)c2ccccc2)cc1` the Potency was inconclusive: 12.6 µM [quencher, side channel, partial curve]. In the case of `COCc1cc(C)nc(Nc2ccccc2C)c1C#N`, the Potency is reported as inconclusive: 39.8 µM [fluorescent, side channel, single point]. `COC(=O)c1c(NC(=O)COc2ccc(Cl)cc2Cl)sc2c1CC(C)(C)NC2(C)C` was tested, and the Potency was inconclusive: 1.78 µM [inhibitor, full curve, poor fit]. For `OC(CNCCc1ccc(Cl)cc1)COc1cc(Cl)ccc1Cl` (stereo not given), the Potency was inconclusive: 39.8 µM [fluorescent, side channel, single point]. `O=C(O)c1ccc2c(c1)C(=O)N(c1cccc(C(=O)/C=C/c3ccccc3)c1)C2=O` was tested, and the Potency was inconclusive: 28.2 µM [quencher, side channel, partial curve]. For `CN(C)c1ccc(NC(=O)C(=O)NCCOc2ccccc2)cc1`, the Potency was inconclusive: 17.8 µM [quencher, side channel, partial curve]. With `Cc1ccc(C)c(S(=O)(=O)Nc2ccccc2C(=O)Nc2ccc(S(=O)(=O)Nc3ncccn3)cc2)c1` the Potency was inconclusive: 28.2 µM [quencher, side channel, single point]. In the case of `CCCCN(C)C(=O)Cn1nc(-c2ccc(Cl)cc2)ccc1=O`, the Potency is reported as inconclusive: 39.8 µM [inhibitor, single point]. For `CCC(=O)c1ccc(N2CCN(C(=O)c3ccccc3)CC2)c(F)c1`, the Potency was inconclusive: 35.5 µM [fluorescent, side channel, partial curve]. For `COc1cccc2cc(-c3nc(-c4cccs4)cs3)c(=O)oc12`, the Potency was inconclusive: 3.16 µM [quencher, side channel, full curve]. With `C/C(=N\NS(=O)(=O)c1ccc(C)c([N+](=O)[O-])c1)c1cc2ccccc2o1` the Potency was inconclusive: 28.2 µM [quencher, side channel, single point]. `Cc1cccc(-c2nc(CN3CCCC(C(=O)NC4CCCCCC4)C3)c(C)o2)c1` (stereo not given) was tested, and the Potency was inconclusive: 10 µM [fluorescent, side channel, partial curve]. For `CC(Cc1cccs1)NC(=S)Nc1ccc(Cl)cc1` (stereo not given), the Potency was inconclusive: 28.2 µM [quencher, side channel, single point]. `O=C(N/N=C/c1ccc(-c2ccc(Br)cc2)o1)c1ccc2c(c1)OCO2` was tested, and the Potency was inconclusive: 39.8 µM [inhibitor, single point]. `O=C(Cn1nc(Cl)nc1Cl)c1cc2ccccc2oc1=O` was tested, and the Potency was inconclusive: 25.1 µM [quencher, side channel, single point]. With `O=c1[nH]c(CN2CCc3ccccc32)nc2scc(-c3cccs3)c12` the Potency was inconclusive: 6.31 µM [quencher, side channel, single point]. In the case of `CCN(CC)S(=O)(=O)c1ccc(/C=C/C(=O)OCC(=O)c2c(N)n(C)c(=O)n(C)c2=O)cc1`, the Potency is reported as inconclusive: 28.2 µM [quencher, side channel, single point]. `CN1CCN(c2nc(-c3ccc(C(C)(C)C)cc3)nc3ccccc23)CC1` was tested, and the Potency was inconclusive: 15.8 µM [fluorescent, side channel, partial curve]. With `COc1ccc(-c2nn(-c3ccccc3)cc2/C=N/NC(=O)c2ccc(Br)o2)cc1` the Potency was inconclusive: 39.8 µM [inhibitor, single point]. For `Cn1c(N)c(C(=O)COC(=O)CC2CC3CCC2C3)c(=O)n(C)c1=O` (stereo not given), the Potency was inconclusive: 25.1 µM [fluorescent, side channel, single point]. For `O=c1cc(-c2ccccc2Cl)oc2c(Br)ccc(O)c12`, the Potency was inconclusive: 50.1 µM [inhibitor, single point]. In the case of `c1ccc(-c2cn(-c3ccccc3)c3ncnc(NCCCN4CCOCC4)c23)cc1`, the Potency is reported as inconclusive: 10 µM [fluorescent, side channel, partial curve]. With `Nc1ccc(Nc2ccc([N+](=O)[O-])cc2[N+](=O)[O-])cc1` the Potency was inconclusive: 12.6 µM [quencher, side channel, partial curve]. In the case of `O=C(O)c1cc(Sc2ccc(Br)cc2)nc2ccccc12`, the Potency is reported as inconclusive: 15.8 µM [quencher, side channel, single point]. With `CCCCc1ccc(/C=C(\C#N)C(N)=S)s1` the Potency was inconclusive: 25.1 µM [quencher, side channel, partial curve]. In the case of `CC(C)c1ccccc1S(=O)(=O)c1cc(N)c2ncccc2c1[N+](=O)[O-]`, the Potency is reported as inconclusive: 11.2 µM [quencher, partial curve]. With `Cc1ccc(N(CC(=O)NCc2ccco2)C(=O)CNS(=O)(=O)c2ccccc2)c(C)c1` the Potency was inconclusive: 35.5 µM [inhibitor, partial curve].

Source: PubChem BioAssay AID1768 (National Center for Advancing Translational Sciences (NCATS), 2009)
Potency is the fitted concentration of half-maximal effect; tags give direction and shape of the fitted curve or compound fluorescence and quenching.
Throughout, for FP activity change, negative = inhibition: % of control where 0% means no effect.
